Results from PubChem BioAssay AID504832 (National Center for Advancing Translational Sciences (NCATS), 2011).
Among all 310,000 compounds or so, about 18,000 (5.8%) were called active. This list was built around the results that the source calls inconclusive (neither active nor inactive); the mix of calls is not that of the screen. The call rests on the fitted dose curve; in most records, active means well fitted inhibition curve with a large enough effect; inconclusive means small, poorly fitted or top-dose-only effect, or another doubt; inactive means no such curve, though single readings can be large or run the other way. No potency is given beside an inconclusive call; the fits are too rough.

assay: Primary qHTS for delayed death inhibitors of the malarial parasite plastid, 48 hour incubation; conditions: P. falciparum luciferase growth in erythrocytes; series mostly up to 28.7 µM; activity change, negative = inhibition: at the top concentration
Summary of the method: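 A one-generation exposure of luciferase-tagged malaria parasites in RPMI 1640/Albumax erythrocyte culture, 37 C and 5% CO2. Inhibition is inferred from decreased luminescence after adding detection reagent.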
On the % scale 0 is the no-effect control and ±100 the full control effect; potency means the concentration at half of the fitted maximal effect; tags describe the fitted curve by direction and shape.

Row | SMILES | Potency | activity change, negative = inhibition
1 | Cc1nc(NC(=O)C2CC2)sc1C | inconclusive [inhibitor, partial curve, poor fit] | 
2 | CCCc1ncc(CN2CCCC(C(=O)Nc3ccc(-c4cccc(OC)c4)cc3)C2)cn1 (stereo not given) | inconclusive [inhibitor, partial curve] | 
3 | C[C@H](NC(=O)c1ccccc1)C(=O)OCC(=O)Nc1ccc2c(c1)OCO2 |  | inactive: -7.01%
4 | COc1cccc(-c2cc(C(F)(F)F)nc(N3CCC(C)CC3)n2)c1 | inconclusive [inhibitor, single point] | 
5 | COc1nc(N)c(S(=O)(=O)c2ccc(C)cc2)cc1C#N | inconclusive [inhibitor, single point] | 
6 | Cc1ccc(NC(=O)NC2CCN(CC(=O)Nc3nccs3)CC2)cc1 | inconclusive [inhibitor, partial curve] | 
7 | COc1ccc(C(CC(=O)N2CCCC2)c2c(OC)cc(OC)c3ccc(=O)oc23)cc1 (stereo not given) | inconclusive [inhibitor, partial curve] | 
8 | O=C(NCC(c1ccco1)N1CCc2ccccc2C1)C(=O)Nc1ccccc1 (stereo not given) | inconclusive [inhibitor, single point] | 
9 | Nc1c(C(=O)Nc2ccccc2Cl)nnn1-c1ccc2c(c1)OCCO2 |  | inactive: 228%
10 | O=C(O)COCCN1CCN(C(c2ccccc2)c2ccc(Cl)cc2)CC1 (stereo not given) |  | inactive: 6.35%
11 | CC(=O)OCC(=O)C1(O)CCC2C3CCC4=CC(=O)C=CC4(C)C3C(O)CC21C (stereo not given) |  | inactive: -0.173%
12 | CC(=O)n1cc([C@H]2C=C(C(=O)N3CCN(Cc4ccc5c(c4)OCO5)CC3)O[C@@H](OCc3ccc(CO)cc3)C2)c2ccccc21 | active: 4.65 µM | 
13 | O=C(C1=C(O)C(=O)N(CCN2CCOCC2)C1c1cccc(Br)c1)c1cccs1 (stereo not given) | inconclusive [inhibitor, full curve, poor fit] | 
14 | COc1ccc(CNc2cccc(C)n2)c(O)c1 |  | inactive: 8.76%
15 | COc1ccc(CCN(Cc2ccccn2)C(=S)Nc2ccccc2Cl)cc1OC | inconclusive [inhibitor, single point] | 
16 | COc1ccc(-c2cc(C)no2)cc1S(=O)(=O)N1CC(=O)Nc2ccccc21 | inconclusive [inhibitor, partial curve] | 
17 | CC(C)c1nnc(NC(=O)CSc2ccccc2)s1 |  | inactive: 23.6%
18 | O=C(Cc1ccc(S(=O)(=O)N2CCOCC2)s1)N1CCN(S(=O)(=O)c2cccc(Cl)c2)CC1 | active: 11.7 µM | 

Row | SMILES | Potency | activity change, negative = inhibition
19 | COc1ccc(CC(=O)Nc2nnc(C)s2)cc1 |  | inactive: 6.86%
20 | Cc1ccc(N2CCN(S(=O)(=O)c3ccc4oc(=O)ccc4c3)CC2)cc1Cl |  | inactive: 27.6%
21 | CCc1cc(-c2n[nH]c(=S)n2N)n(C)n1 |  | inactive: -7.94%
22 | CCOc1ccc(CCNC(=O)c2cccc(S(=O)(=O)N3CCN(C(C)=O)CC3)c2)cc1OCC | inconclusive [inhibitor, single point] | 
23 | CCOc1ccc(Br)cc1C1=CC(=O)C[C@H](c2ccc(OC)cc2)C1 | inconclusive [inhibitor, partial curve, poor fit] | 
24 | CC1(C)CC(=O)C2=C(C1)O[C@@]1(CCCCN3C(=O)c4ccccc4C3=O)Cc3cc(C#N)ccc3C2O1 | active: 1.51 µM | 
25 | CCCCN(CC)C(=S)Nc1ccc2nc(N3CCN(C)CC3)cc(C)c2c1 | inconclusive [inhibitor, partial curve, poor fit] | 
26 | COc1ccc(N(C(=O)Cn2nnc(-c3ccc(F)cc3)n2)C(C)C(=O)NC2CCCC2)cc1OC (stereo not given) | inconclusive [inhibitor, partial curve, poor fit] | 
27 | COc1cc2ccccc2nn1 |  | inactive: -7.37%
28 | N#C/C(=C\c1ccncc1)c1ccccn1 | inconclusive [inhibitor, single point] | 
29 | O=C(CSCc1cnn(-c2ccccc2)c1-n1cccc1)NCc1ccc2c(c1)OCO2 | inconclusive [inhibitor, single point] | 
30 | COc1ccc(NC(=O)Nc2ccc([N+](=O)[O-])cc2)cn1 | inconclusive [inhibitor, single point] | 
31 | Cc1cc(C(=O)COc2ccc(Cl)cc2Br)c(C)n1C |  | inactive: 104%
32 | COc1ccc(S(=O)(=O)N(CC(=O)N2CCN(c3ccccc3OC)CC2)c2ccccc2)cc1 | inconclusive [inhibitor, single point] | 
33 | CCOC(=O)c1sc2nc(Cc3ccc(Cl)cc3)[nH]c(=S)c2c1C | inconclusive [inhibitor, single point] | 
34 | CN1c2ccccc2N(C)C1(C)c1cccc2ccccc12 | inconclusive [inhibitor, partial curve, poor fit] | 
35 | COc1ccc(CCN2CN(S(=O)(=O)c3ccc(OC)cc3)c3nc4ccccc4nc32)cc1 | inconclusive [inhibitor, single point] | 
